Assay results published in PubChem BioAssay AID463173 (ICCB-Longwood Screening Facility, Harvard Medical School, 2010).
Hit rate of the full screen: of about 52,000 compounds, about 4,300 (8.3%) were called active. No stated cut-off is given here; in the data, active means survival mostly below about 52% (no sharp cut-off); inactive means mostly above about 56%. The list shows a part of the results.

These molecules were tested on DeltatarO mutant (assay: growth inhibition of S. aureus wild type versus tarO mutant, primary screen, teichoic acid synthesis inhibitors, RN4220, OD600 (AID 463173)). Conditions: OD600, 18 h, active compounds read low, screened at 18.75 µg/mL (by protocol).
`COc1ccccc1CCNC(=O)c1ccc2c(c1)c(C)c(C)n2Cc1ccc(Cl)cc1` was tested, and the survival was inactive: 91%. With `O=C(NCc1ccccc1Cl)C1CCCN(C(=O)c2cnn(-c3ccccc3)c2-n2cccc2)C1` (stereo not given) the survival was inactive: 72%. `OCc1ccccc1CNc1ccc(F)cc1` was tested, and the survival was inactive: 98%. With `N#Cc1cnc(SCCc2ccccc2)nc1N` the survival was inactive: 81%. For `COc1ccc(-n2c(=O)c3c(c4cc(OC)ccc4n3C)n(Cc3cc(C)ccc3C)c2=O)cc1`, the survival was inactive: 97%. `CCOc1ccc(C(=O)c2cn(CC(=O)Nc3ccc4c(c3)OCO4)c3ccc(OCC)cc3c2=O)cc1` was tested, and the survival was inactive: 67%. `O=C(Cn1ncn2nc(-c3cccs3)cc2c1=O)NCc1cccc(Br)c1` was tested, and the survival was inactive: 67%. With `COC(=O)c1cccnc1-n1c(=O)c2cccnc2n(CC(=O)Nc2c(C)cc(C)cc2C)c1=O` the survival was inactive: 82%. In the case of `CC(=O)N1CCN(c2nc(C3CC3)nc3sc4c(c23)CCCC4)CC1`, the survival was inactive: 77%. With `Cc1ccc(NC(=O)CN2C(=O)COc3ccc(S(=O)(=O)N4CCCCC4)cc32)cc1N(C)C` the survival was inactive: 99%. In the case of `COc1ccc(OC)c(-c2csc(-c3c(N)c(C(=O)c4ccccc4)n4ccccc34)n2)c1`, the survival was inactive: 74%. `CCCCOc1ccc(CNC(=O)C2COc3ccc(OC)cc3C2)cc1` (stereo not given) was tested, and the survival was inactive: 94%. With `Cn1c(=O)n(C/C=C/c2ccccc2)c(=O)c2c1nc1n2CCN1c1ccccc1` the survival was inactive: 105%. With `COc1ccc(S(=O)(=O)N(CC(=O)Nc2cccc(C(F)(F)F)c2)c2ccc(C)cc2)cc1` the survival was inactive: 55%. `O=C(Nc1c(-c2ccc(F)cc2)nc2ccccn12)c1ccccc1F` was tested, and the survival was inactive: 139%. `COc1ccccc1CNC(=O)c1ccc2c(c1)CCN2S(=O)(=O)c1ccccc1` was tested, and the survival was active: 43%. With `CCOC(=O)c1cccc(NC(=O)c2ccc3nc(Cc4ccccc4)oc3c2)c1` the survival was inactive: 95%. In the case of `Cc1cccc(CNC(=O)c2ccc(NC(=O)N3CC(C)Sc4ccccc43)cc2)c1` (stereo not given), the survival was inactive: 57%. `Nc1c(C(=O)c2ccc(F)cc2)sc(Nc2ccccc2F)c1S(=O)(=O)c1ccc(Br)cc1` was tested, and the survival was inactive: 67%. `CC(C)CN(CCNC(=O)CN1C(=O)CSc2ccc(S(=O)(=O)N3CCOCC3)cc21)CC(C)C` was tested, and the survival was inactive: 86%. For `Cc1ccc(NC(=O)Cn2c(=O)n(-c3ccccc3)c(=O)c3ccc(C(=O)NCc4ccc5c(c4)OCO5)cc32)c(C)c1`, the survival was inactive: 112%. For `CC(CNC(=O)Cc1ccc(NC(=O)N2CCSc3ncccc32)cc1)c1ccccc1` (stereo not given), the survival was inactive: 101%. In the case of `Cc1ccccc1NCc1cccn1-c1nnc(N2CCC(C)CC2)s1`, the survival was inactive: 87%. With `COc1ccc(-c2cn3c(n2)sc2cc(C(=O)Nc4cccc(OC)c4)ccc23)cc1` the survival was inactive: 61%. For `COC(=O)c1scc(-c2ccc(C)cc2)c1S(=O)(=O)Nc1ccc(N(C)C)cc1`, the survival was inactive: 119%. `CCOC(=O)C1=C(CN2CCN(c3ccccc3F)CC2)NC(=O)NC1c1ccc(Cl)cc1` (stereo not given) was tested, and the survival was inactive: 80%. In the case of `COc1ccccc1C(=O)NCCN1CCCC1`, the survival was inactive: 79%. In the case of `Cc1ccc(-n2c3c(c(=O)[nH]c2=O)C(NC(=O)c2ccccc2C)(C(F)(F)F)C(=O)N3)cc1` (stereo not given), the survival was inactive: 72%. For `N#Cc1c2c(c(N3CCOCC3)[nH]c1=S)CCCC2`, the survival was inactive: 94%. `Cc1cc2ccccc2n1-c1ccc(C(=O)N2CCC(C(=O)NCc3ccccc3Cl)CC2)s1` was tested, and the survival was inactive: 76%. With `COc1ccccc1N1CCN(C(=O)CSc2n[nH]c(-c3ccccc3)n2)CC1` the survival was inactive: 88%. For `CCOc1ccc(CCNC(=O)c2cc3c(s2)-c2ccccc2OC3)cc1OCC`, the survival was inactive: 67%. `Cc1ccc(-c2cc(NC(=O)COc3ccc(Cl)cc3C)on2)cc1` was tested, and the survival was inactive: 78%. In the case of `COc1ccc(-c2cc(C(F)(F)F)nc(SCC(=O)N3CCC(C)CC3)n2)cc1`, the survival was inactive: 56%. With `O=C(NCc1ccc(Cl)cc1)C1CCN(S(=O)(=O)Cc2ccccc2)CC1` the survival was inactive: 72%. `Cc1ccc(CNC(=O)C2CCN(S(=O)(=O)c3cc(-c4noc(C)n4)ccc3C)CC2)cc1` was tested, and the survival was inactive: 124%. With `CCOc1ccc(NC(=O)CC2C(=O)N(c3ccccc3)C(=O)N2Cc2ccc3c(c2)OCO3)cc1` (stereo not given) the survival was inactive: 79%. In the case of `Cc1nc2c(-c3ccccc3)c(C)nn2c(C)c1CCC(=O)NCc1ccc(F)cc1`, the survival was inactive: 94%. For `Cc1c(Cl)cccc1-n1nc(C)c2c(C(=O)NCc3ccccc3)cc(C3CC3)nc21`, the survival was inactive: 69%. In the case of `O=S(=O)(NC1CC1)c1ccc(S(=O)(=O)N2CCC3(CC2)OCCO3)cc1`, the survival was inactive: 93%. `Cc1ccc(C(=O)Nc2nccs2)c(C)c1` was tested, and the survival was inactive: 101%. For `Cn1c(=O)oc2cc(S(=O)(=O)Nc3ccccc3O)ccc21`, the survival was inactive: 130%. In the case of `O=C1C(Nc2ccccc2)=CC(c2ccc(Br)cc2)N1c1ccccc1` (stereo not given), the survival was inactive: 72%. For `Cc1ccccc1CN1c2ccccc2S(=O)(=O)c2ccccc21`, the survival was inactive: 71%. With `CC(=O)N1CCc2cc(S(=O)(=O)NC(Cc3ccccc3)C(=O)Nc3cccc(C)c3)ccc21` (stereo not given) the survival was inactive: 111%. With `Cc1nc(NN)nc(NCc2ccccc2)n1` the survival was inactive: 82%. With `Oc1c(C(c2ccc(F)cc2)N2CCOCC2)sc2nc(-c3ccco3)nn12` (stereo not given) the survival was inactive: 73%. For `O=C(Cn1ncc2c([nH]c3ccccc32)c1=O)Nc1cccc(C(F)(F)F)c1`, the survival was inactive: 87%. `Cc1cc(C)cc(N2CC(c3nc(-c4cccc(Cl)c4)no3)CC2=O)c1` (stereo not given) was tested, and the survival was active: 37%. In the case of `COc1ccc(CCNc2nccn(-c3ccc(C)c(C)c3)c2=O)cc1OC`, the survival was inactive: 94%. For `Cc1ccc(CNCc2ccccc2)s1`, the survival was inactive: 144%. In the case of `CCc1ccc(N(CC(=O)NCC2CCCO2)S(C)(=O)=O)cc1` (stereo not given), the survival was active: 66%. `COc1ccc(C)cc1NC(=O)CSc1nc2ccccc2nc1N1CCOCC1` was tested, and the survival was inactive: 73%. For `CC1CCCN(S(=O)(=O)c2ccc3[nH]c(=O)cc(C(=O)NCCc4ccc(Cl)cc4)c3c2)C1` (stereo not given), the survival was inactive: 69%. `CCOCCCN(C(=O)Nc1ccc(Cl)cc1)C1CCN(C(C)=O)CC1` was tested, and the survival was inactive: 83%. For `O=C(COc1ccc(Cl)cc1)Nc1nnc2n1CCS2`, the survival was inactive: 124%. In the case of `COc1cc(OC)cc(-c2nc(-c3cccc(C)c3)no2)c1`, the survival was active: -3%. For `Cc1cc(-c2ccccc2)n2ncc(C#N)c2n1`, the survival was inactive: 96%. `COc1ccc(N2CCN(C(CNC(=O)C(=O)NCCc3ccccc3)c3cccnc3)CC2)cc1` (stereo not given) was tested, and the survival was inactive: 61%. In the case of `COc1ccc(C)cc1NC(=O)NCc1cccn1Cc1ccccc1`, the survival was inactive: 77%. `COc1ccccc1NC(=O)CN(C)S(=O)(=O)c1ccc2c(c1)c(=O)n(C)c(=O)n2C` was tested, and the survival was inactive: 85%. With `O=C(NCc1ccccc1)c1ccc2nc(CCc3ccccc3)oc2c1` the survival was active: 0%. `Cc1ccc(CCNC(=O)NCc2noc3ccccc23)cc1` was tested, and the survival was inactive: 102%. For `Cc1ccc(CN2CCC(CNC(=O)Nc3cccc(Cl)c3C)C2)cc1` (stereo not given), the survival was inactive: 75%. With `CC(C)(C)c1ccc(C(=O)Nc2cc(-c3nc4ccccc4o3)ccc2Cl)cc1` the survival was active: 13%. `CCc1ccccc1NC(=O)c1ccc2c(c1)CCN2S(C)(=O)=O` was tested, and the survival was inactive: 69%. With `CCc1ccccc1NC(=O)C1CCN(S(=O)(=O)c2ccc3[nH]c(=O)ccc3c2)CC1` the survival was inactive: 118%. `COc1ccc(Cc2nc3ccc(C(=O)NCc4ccc(OC)cc4OC)cc3o2)cc1` was tested, and the survival was inactive: 75%. In the case of `Cc1noc(C)c1S(=O)(=O)N1CCC(C(=O)Nc2ccc(Br)cc2)CC1`, the survival was inactive: 90%. In the case of `COc1ccc2nc(Cl)c(CNCCN(C)C)c(N3CCCCC3)c2c1`, the survival was inactive: 94%. With `COc1ccc(CNC(=O)c2nc(Cn3nc(C)c(Br)c3C)no2)cc1OC` the survival was inactive: 82%. `COc1cc(NC(=O)c2sc3nc4n(c(=O)c3c2C)CCCCC4)cc(OC)c1OC` was tested, and the survival was active: 42%. `CC(C)c1ccc(NC(=O)c2ccc(F)c(S(=O)(=O)N3CCCCCC3)c2)cc1` was tested, and the survival was inactive: 79%. `CN1/C(=C2/SC(=S)N(N)C2=O)Sc2ccccc21` was tested, and the survival was inactive: 94%. With `COc1ccc(S(=O)(=O)NCCc2csc3nc(-c4ccc(OC)c(OC)c4)nn23)cc1C` the survival was inactive: 92%. In the case of `Cn1c(SCC(=O)NC(C)(C)C)nnc1-c1ccccc1`, the survival was inactive: 92%. `O=C1CCSc2ccc(S(=O)(=O)Nc3ccc(Cl)c(C(F)(F)F)c3)cc2N1` was tested, and the survival was inactive: 72%. `COc1ccc(-c2nc(C(=O)Nc3ccc(C(C)=O)cc3)nn2-c2cccc(Cl)c2)cc1` was tested, and the survival was active: 46%. With `COc1ccc(N2CCN(S(=O)(=O)c3c(C)[nH]c(=O)[nH]c3=O)CC2)cc1` the survival was inactive: 73%. In the case of `CCN(C(=O)c1cc2cc3ccc(OC)cc3nc2o1)c1cccc(C)c1`, the survival was active: 6%. In the case of `O=S(=O)(NC1CC1)c1ccc(S(=O)(=O)N2CCCc3ccccc32)cc1`, the survival was inactive: 51%. With `CC1CCN(c2nn3c(=O)c(C(=O)NCCCOC(C)C)cnc3s2)CC1` the survival was inactive: 124%. In the case of `Cc1c(C(=O)OCc2ccccc2)[nH]c2c1C(=O)CC(c1ccc(C(C)(C)C)cc1)C2` (stereo not given), the survival was inactive: 91%. With `CCc1cccc(NC(=O)c2cc3c(=O)n(Cc4ccccc4)ccc3nc2C)c1` the survival was inactive: 71%. For `Cc1ccc(CN2CCCn3nc(C(=O)NCCc4ccccc4C)cc3C2=O)cc1`, the survival was inactive: 87%. `COc1cc(C(=O)Nc2ccccc2-c2nc(-c3ccccc3)no2)cc(OC)c1OC` was tested, and the survival was inactive: 66%. `CC(C)c1ccc(NC(=O)C2CCN(C(=O)c3ccc(F)cc3)CC2)cc1` was tested, and the survival was inactive: 61%. For `CC(=O)c1cccc(NC(=O)C2CCN(S(=O)(=O)c3ccc4c(c3)CCCN4C(C)=O)CC2)c1`, the survival was inactive: 101%. For `Cc1ccc(-c2nc(C)c(CCNC(=O)c3cccs3)s2)cc1`, the survival was inactive: 91%. `NC(=O)CSc1nnc2c(n1)[nH]c1ccc(Cl)cc12` was tested, and the survival was inactive: 103%.
